# Laboratory results as given in PubChem BioAssay AID2546 (National Center for Advancing Translational Sciences (NCATS), 2010).
# Hit rate of the full screen: of about 310,000 compounds, about 11,000 (3.5%) were called active. This list was built around the results that the source calls inconclusive (neither active nor inactive); the mix of calls is not that of the screen. Calls follow the shape of the dose curve; as a rule, active = well fitted inhibition curve with a large enough effect; inconclusive = small, poorly fitted or top-dose-only effect, or effect the other way; inactive = flat fitted curve, though single readings scatter. No potency is given beside an inconclusive call; the fits are too rough.
# Experiment: VP16 counterscreen qHTS for inhibitors of ROR gamma transcriptional activity;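 also: Gal4-VP16 expression switched on by copper sulfate through the metallothionein promoter; nearly all actives have a fitted effect of over 50% in size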
# Conditions: Drosophila S2 Gal4-VP16 UAS-luciferase, luminescence, 20 h; activity, negative = inhibition: at 53.6 µM (top of the series)
# % is scaled to controls: 0 for no effect and ±100 for the full control effect; potency is read from the fitted curve at half-maximal effect; tags tell the direction and shape of the fitted curve.
SMILES,Potency,"activity, negative = inhibition"
CC(C)OC(=O)c1cc2c(ccn2C)n1CC(=O)N(Cc1ccccc1)c1ccccc1,"inconclusive [inhibitor, single point]",–
CCOC(=O)c1c(C)[nH]c(C2=NNC(=Nc3ccc(OCC)cc3)SC2)c1C,"inconclusive [inhibitor, single point]",–
c1ccc(-c2oc3ncnc(NCCCn4ccnc4)c3c2-c2ccccc2)cc1,"inconclusive [inhibitor, single point]",–
C/C(CC(=O)NC(C)(C)C)=N\NC(N)=S,"inconclusive [inhibitor, partial curve]",–
C/C(=N\NC(=S)NCCc1ccccc1)c1ccc(Cl)cc1Cl,active: 6.31 µM,–
Cn1ncc(Br)c1NC(=O)Nc1ccc(OC(F)(F)F)cc1,inactive,–
Cc1nnsc1S(=O)c1ccc(Cl)c(Cl)c1 (stereo not given),inactive,–
Cc1c(C(=O)O)[nH]c2c1C(=O)CC(c1ccc(C(C)(C)C)cc1)C2 (stereo not given),inactive,–
O=C(CCCN1C(=O)/C(=C\c2ccccc2)SC1=S)Nc1ccc(O)cc1C(=O)O,"inconclusive [inhibitor, partial curve]",–
CCCCOC(=O)N1CCOCCOCCN(C(=O)OCCCC)CCOCCOCC1,inactive,–
CC1(C)OC(C(O)(c2cccc3c2oc2ccccc23)c2cccc3c2oc2ccccc23)C(C(O)(c2cccc3c2oc2ccccc23)c2cccc3c2oc2ccccc23)O1 (stereo not given),–,inactive: -0.0674% [at 10 µM]
CC(=O)Nc1nnc(SCC(=O)c2ccc(F)cc2)s1,"inconclusive [activator, single point]",–
CCOC(=O)N1CCC(NC(=O)c2cc(C(=O)Nc3cccc(C(F)(F)F)c3)ccc2CO)CC1,"inconclusive [inhibitor, partial curve, poor fit]",–
Cc1ccc(-c2nc3ccc([N+](=O)[O-])cc3[nH]2)cc1,"inconclusive [inhibitor, single point]",–
COC(=O)c1c(-c2cccs2)csc1NC(=O)CN1CCOCC1,inactive,–
O=C(Nc1ccccc1C(F)(F)F)c1c(F)cccc1Cl,inactive,–
Cc1nn(C)cc1/C=C/C(=O)c1ccccc1,"inconclusive [inhibitor, single point]",–
O=C1CCCc2nc3c(cc21)C(O)Oc1c-3ccc2ccccc12 (stereo not given),"inconclusive [activator, full curve]",–
S=c1[nH]nc(COc2ccc(Cl)cc2)o1,"inconclusive [inhibitor, single point]",–
COc1cccc(CN2CCN(C(=O)c3cccc4ccccc34)CC2)c1,inactive,–
CCOC(=O)Cc1nnc(NC(=O)CSc2nncn2C)s1,inactive,–
O=c1c(-c2cccc(F)c2)nc2cncnc2n1Cc1ccc(F)cc1,"inconclusive [inhibitor, single point]",–
O=C(C1CCN(Cc2ccc(Cl)cc2)CC1)N1CCN(C(c2ccccc2)c2ccccc2)CC1,"inconclusive [inhibitor, single point]",–
CCC1(CC)Cc2ccccc2-c2nc(CCl)[nH]c(=O)c21,"inconclusive [inhibitor, single point]",–

SMILES,Potency,"activity, negative = inhibition"
O=C(N/N=C/c1cc(Cl)ccc1O)C(=O)Nc1ccccc1OC(F)(F)C(F)F,active: 2.51 µM,–
COc1cccc(C(=O)N2N=C(c3ccccn3)CC2(O)C(F)(F)F)c1 (stereo not given),active: 5.01 µM,–
Cc1ccc(CN=c2c([N+](=O)[O-])nn(-c3cccc(C)c3)n2O)cc1,"inconclusive [activator, single point]",–
Oc1cccc2c(NC(=S)Nc3ccc(SC(F)F)cc3)cccc12,active: 7.94 µM,–
COc1c(O)c2c(=O)cc(OC)c3c4c(OC)cc(=O)c5c(O)c(OC)c6c(c(c1C[C@@](C)(O)[C@H]6C(C)=O)c23)c54,"inconclusive [inhibitor, single point]",–
CCc1ccc(N2CN(Cc3ccco3)CNC2=S)cc1,"inconclusive [inhibitor, single point]",–
NC(=NCCc1c[nH]c2ccccc12)NC(=O)c1ccc(Cl)cc1,"inconclusive [inhibitor, single point]",–
O=S1(=O)[C@H]2CC3O[C@]2(C[C@@H]3c2ccc(F)cc2)CN1Cc1ccc(Cl)cc1,inactive,–
Cc1ccc(S(=O)(=O)N(CC(=O)Nc2ccc(Cl)c([N+](=O)[O-])c2)C2CCCCC2)cc1,"inconclusive [inhibitor, full curve, poor fit]",–
CCCCCn1c(=O)[nH]c2cc(C(=O)N3CCN(c4ccc(C(C)=O)cc4)CC3)ccc2c1=O,"inconclusive [inhibitor, single point]",–
Cc1noc(C)c1CSc1nc2ccccc2n1CCc1ccccc1,"inconclusive [inhibitor, single point]",–
O=C(NNC(=O)C(c1ccccc1)c1ccccc1)c1cccs1,"inconclusive [activator, single point]",–
CCc1ccccc1-n1nnnc1SCC(=O)Nc1cc(C)on1,"inconclusive [inhibitor, partial curve]",–
Cc1ccccc1N1CCN(CCC(=O)Nc2ccc(F)cc2)CC1,inactive,–
Cc1ccc(N(NC(=O)C(O)(c2ccccc2)c2ccccc2)C(=O)CCl)cc1,active: 7.94 µM,–
O=C(Nc1ncc(Cc2cccc(Cl)c2)s1)C1=NCCN1,active: 5.01 µM,–
Cc1nn(-c2ccccc2)c2c1C1(C(=O)N(C)c3ccccc31)C(C#N)=C(N)O2 (stereo not given),"inconclusive [inhibitor, single point]",–
Cc1cc(=O)oc2ccc(OCC(=O)N(Cc3ccc(F)cc3)Cc3ccco3)cc12,"inconclusive [inhibitor, single point]",–
O=C(COC(=O)c1ccc2c(c1[N+](=O)[O-])C(=O)c1ccccc1C2=O)NC1CC1,active: 17.8 µM,–
CCCc1cc(NC(=O)CCl)n(-c2ccccc2)n1,active: 20 µM,–
CCCCn1c(=S)[nH]c2cc(S(=O)(=O)N3CCCCC3)ccc21,"inconclusive [inhibitor, single point]",–
Cc1nonc1C(=O)N1CCCC(N2CCN(c3ccc(F)cc3)CC2)C1 (stereo not given),inactive,–
Fc1ccc2c(c1)c1n[nH]c(=S)nc1n2CCc1ccccc1,active: 2.82 µM,–
Cc1nc(NC(=O)C23CC4CC(CC(C4)C2)C3)sc1Cc1ccc2c(c1)OCO2,"inconclusive [inhibitor, single point]",–

SMILES,Potency,"activity, negative = inhibition"
CN(C)S(=O)(=O)c1cccc(NC(=S)NC23CC4CC(CC(C4)C2)C3)c1,"inconclusive [inhibitor, single point]",–
Cn1c(=O)c(=O)n(C)c2cc(S(=O)(=O)N3CCN(c4ccccc4F)CC3)ccc21,"inconclusive [inhibitor, single point]",–
Oc1ccccc1C=Nc1ccccc1-c1nc2ccccc2[nH]1,"inconclusive [inhibitor, single point]",–
CC(C)n1cc(C(N)=S)c(=O)n(Cc2ccccc2)c1=O,"inconclusive [inhibitor, single point]",–
Cc1cccc(C(=O)N2CCN(c3ccc([N+](=O)[O-])c(NCc4ccco4)c3)CC2)c1,inactive,–
Cc1ccc(-n2[nH]c(C)c(C=Nc3ccc4[nH]c(=O)[nH]c4c3)c2=O)cc1,"inconclusive [inhibitor, single point]",–
O=C(CC(O)(c1ccccc1)C(F)(F)C(F)F)c1cccs1 (stereo not given),inactive,–
O=C(NCC1CCCO1)c1ccc2nc(N3CCCCC3)sc2c1 (stereo not given),"inconclusive [inhibitor, partial curve]",–
O=C(N/N=C/c1ccc(Cl)cc1Cl)c1cccc(N2CCCC2=O)c1,inactive,–
Cc1ccc(-n2ncc3c(SCC(=O)Nc4cc(C)on4)ncnc32)c(C)c1,inactive,–
CN(c1ccc(C(=O)NCCSCc2ccco2)cc1)S(C)(=O)=O,"inconclusive [inhibitor, single point]",–
CC(Cl)C(=O)c1ccc2c(c1)CCN2C(=O)C1CC1 (stereo not given),"inconclusive [inhibitor, single point]",–
COc1cccc(N2CCN(C(=S)NCCc3ccccc3)CC2)c1,"inconclusive [inhibitor, single point]",–
CCNC(=O)COC(=O)c1ccc(-c2nc3ccccc3s2)s1,"inconclusive [inhibitor, full curve]",–
CC(=O)NCC(=O)OCC(=O)N1c2ccccc2Sc2ccccc21,"inconclusive [inhibitor, full curve, poor fit]",–
CN(C)c1ccc(/C=N/Nc2nc3ccccc3o2)cc1,active: 11.2 µM,–
CCN(CC(=O)Nc1ccc2c(c1)OCCO2)C(=O)/C=C/c1ccc(F)cc1,"inconclusive [activator, single point]",–
CCOc1ccc(N2CC(C(=O)Nc3ccc(S(=O)(=O)Nc4nccs4)cc3)CC2=O)cc1 (stereo not given),"inconclusive [activator, single point]",–
Oc1c(C(Nc2nccs2)c2ccc(C(F)(F)F)cc2)ccc2cccnc12 (stereo not given),active: 1 µM,–
COC(=O)CCn1c(C)cc(C(=O)COc2ccccc2C(N)=O)c1C,"inconclusive [inhibitor, partial curve]",–
CCOc1ccc(C(C)=O)cc1N1C(=O)C2C3C=CC(C3=C(C)C)C2C1=O (stereo not given),inactive,–
Cc1ccccc1NC(=S)NCc1cccs1,"inconclusive [inhibitor, single point]",–
